{"source": "the supplement of paper PMC12217912", "parents": {"B1": {"name": "TEV protease; numbered along this chain (parent)", "chain": "MGESLFKGPRDYNPISSSICHLTNESDGHTTSLYGIGFGPFIITNKHLFRRNNGTLVVQSLHGVFKVKDTTTLQQHLVDGRDMIIIRMPKDFPPFPQKLKFREPQREERICLVTTNFQTKSMSSMVSDTSCTFPSGDGIFWKHWIQTKDGQCGSPLVSTRDGFIVGIHSASNFTNTNNYFTSVPKNFMELLTNQEAQQWVSGWRLNADSVLWGGHKVFMVKPEEPFQPVKEATQL"}}, "variants_of": "B1", "test": "raw area under fraction-flipped curve 0-4 h after induction (AUC4h, not background-subtracted), DNA-recorder readout of cleavage of the substrate (dimensionless); higher = more cleavage of the substrate by the protease variant", "conditions": "temperature: 34 °C; time window: 0-4 h after rhamnose induction", "protocol": "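In vivo DNA recorder in E. coli TOP10(DE3) ΔrhaA at 34 °C. Each TEVp single-site mutant (parent TEVp 0) is paired with a single-site variant of the 7-mer TEVs (canonical ENLYFQ|S). The substrate sits between flexible linkers in a Bxb1-sfGFP-TEVs-SsrA fusion, so cleavage stabilises Bxb1 and speeds flipping of a recombination array, read by NGS. The value is the raw area under the fraction-flipped curve over 0-4 h after rhamnose induction (AUC4h), with ≥20 reads per time point. It is not background-subtracted; inactive controls average about 0.047.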", "note": "This is one part of the list. Sequences were assembled here from the parent chain. Values near 0.05 are background.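 Note: Bxb1 expression induced with 0.2% (w/v) L-rhamnose at OD600 near 0.5, cultures sampled hourly, flipped fraction per protease–substrate barcode pair counted by paired-end Illumina sequencing.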", "data": [{"variant": "MGESLFKGPRDYNPISSSICHLTNESDGHTTSLYGIGFGPFIITNKHLFRRNNGTLVVQSLHGVFKVKDTTTLQQHLVDGRDMIIIRMPKDFPPFPQKLKFREPQREERICLVTTNQQTKSMSSMVSDTSCTFPSGDGIFWKHWIQTKDGQCGSPLVSTRDGFIVGIHSASNFTNTNNYFTSVPKNFMELLTNQEAQQWVSGWRLNADSVLWGGHKVFMVKPEEPFQPVKEATQL", "note": "[F117Q]", "values": [{"measurement": "area with substrate ENCYFQS", "value": 0.0789}, {"measurement": "area with substrate ENDYFQS", "value": 0.0495}, {"measurement": "area with substrate ENFYFQS", "value": 0.072}, {"measurement": "area with substrate ENGYFQS", "value": 0.0661}, {"measurement": "area with substrate ENHYFQS", "value": 0.0408}, {"measurement": "area with substrate ENKYFQS", "value": 0.0594}, {"measurement": "area with substrate ENMYFQS", "value": 0.0878}, {"measurement": "area with substrate ENQYFQS", "value": 0.0436}, {"measurement": "area with substrate ENRYFQS", "value": 0.0599}, {"measurement": "area with substrate ENSYFQS", "value": 0.04}, {"measurement": "area with substrate ENTYFQS", "value": 0.0453}, {"measurement": "area with substrate ENVYFQS", "value": 0.0839}, {"measurement": "area with substrate ENWYFQS", "value": 0.0445}, {"measurement": "area with substrate ENYYFQS", "value": 0.0522}]}, {"variant": "MGESLFKGPRDYNPISSSICHLTNESDGHTTSLYGIGFGPFIITNKHLFRRNNGTLVVQSLHGVFKVKDTTTLQQHLVDGRDMIIIRMPKDFPPFPQKLKFREPQREERICLVTTNFQTKSMSSMVSDTSCTFPSGDGIFWKHWLQTKDGQCGSPLVSTRDGFIVGIHSASNFTNTNNYFTSVPKNFMELLTNQEAQQWVSGWRLNADSVLWGGHKVFMVKPEEPFQPVKEATQL", "note": "[I145L]", "values": [{"measurement": "area with substrate ENCYFQS", "value": 0.08}, {"measurement": "area with substrate ENDYFQS", "value": 0.047}, {"measurement": "area with substrate ENKYFQS", "value": 0.0581}, {"measurement": "area with substrate ENNYFQS", "value": 0.0574}, {"measurement": "area with substrate ENPYFQS", "value": 0.0581}, {"measurement": "area with substrate ENQYFQS", "value": 0.0286}, {"measurement": "area with substrate ENVYFQS", "value": 0.0736}, {"measurement": "area with substrate ENWYFQS", "value": 0.0058}]}, {"variant": "MGESLFKGPRDYNPISSSICHLTNESDGHTTSLYGIGFGPFIITNKHLFRRNNGTLVVQSLHGVFKVKDTTTLQQHLVDGRDMIIIRMPKDFPPFPQKLKFREPQREERICLVTTNFRTKSMSSMVSDTSCTFPSGDGIFWKHWIQTKDGQCGSPLVSTRDGFIVGIHSASNFTNTNNYFTSVPKNFMELLTNQEAQQWVSGWRLNADSVLWGGHKVFMVKPEEPFQPVKEATQL", "note": "[Q118R]", "values": [{"measurement": "area with substrate ENCYFQS", "value": 0.0721}, {"measurement": "area with substrate ENFYFQS", "value": 0.0611}, {"measurement": "area with substrate ENGYFQS", "value": 0.0659}, {"measurement": "area with substrate ENHYFQS", "value": 0.0683}, {"measurement": "area with substrate ENIYFQS", "value": 0.129}, {"measurement": "area with substrate ENMYFQS", "value": 0.0872}, {"measurement": "area with substrate ENNYFQS", "value": 0.0902}, {"measurement": "area with substrate ENPYFQS", "value": 0.0588}, {"measurement": "area with substrate ENQYFQS", "value": 0.0631}, {"measurement": "area with substrate ENRYFQS", "value": 0.0617}, {"measurement": "area with substrate ENSYFQS", "value": 0.0531}, {"measurement": "area with substrate ENTYFQS", "value": 0.0692}, {"measurement": "area with substrate ENVYFQS", "value": 0.0782}, {"measurement": "area with substrate ENYYFQS", "value": 0.0541}]}, {"variant": "MGESLFKGPRDYNPISSSICHLTNESDGHTTSLYGIGFGPFIITNKHLFRRNNGTLVVQSLHGVFKVKDTTTLQQHLVDGRDMIIIRMPKDFPPFPQKLKFREPQREERICLVTTNFKTKSMSSMVSDTSCTFPSGDGIFWKHWIQTKDGQCGSPLVSTRDGFIVGIHSASNFTNTNNYFTSVPKNFMELLTNQEAQQWVSGWRLNADSVLWGGHKVFMVKPEEPFQPVKEATQL", "note": "[Q118K]", "values": [{"measurement": "area with substrate ENCYFQS", "value": 0.084}, {"measurement": "area with substrate ENDYFQS", "value": 0.0642}, {"measurement": "area with substrate ENEYFQS", "value": 0.0638}, {"measurement": "area with substrate ENIYFQS", "value": 0.0771}, {"measurement": "area with substrate ENKYFQS", "value": 0.0655}, {"measurement": "area with substrate ENPYFQS", "value": 0.0161}, {"measurement": "area with substrate ENQYFQS", "value": 0.0684}, {"measurement": "area with substrate ENRYFQS", "value": 0.0503}, {"measurement": "area with substrate ENSYFQS", "value": 0.0742}]}, {"variant": "MGESLFKGPRDYNPISSSICHLTNESDGHTTSLYGIGFGPFIITNKHLFRRNNGTLVVQSLHGVFKVKDTTTLQQHLVDGRDMIIIRMPKDFPPFPQKLKFREPQREERICLVTTNFQTKSMSSMVSDTSCTFPSGDGITWKHWIQTKDGQCGSPLVSTRDGFIVGIHSASNFTNTNNYFTSVPKNFMELLTNQEAQQWVSGWRLNADSVLWGGHKVFMVKPEEPFQPVKEATQL", "note": "[F140T]", "values": [{"measurement": "area with substrate ENCYFQS", "value": 0.0727}, {"measurement": "area with substrate ENDYFQS", "value": 0.0636}, {"measurement": "area with substrate ENEYFQS", "value": 0.0533}, {"measurement": "area with substrate ENGYFQS", "value": 0.0641}, {"measurement": "area with substrate ENHYFQS", "value": 0.0591}, {"measurement": "area with substrate ENKYFQS", "value": 0.0565}, {"measurement": "area with substrate ENMYFQS", "value": 0.064}, {"measurement": "area with substrate ENQYFQS", "value": 0.0609}, {"measurement": "area with substrate ENTYFQS", "value": 0.0551}, {"measurement": "area with substrate ENVYFQS", "value": 0.0538}, {"measurement": "area with substrate ENYYFQS", "value": 0.059}]}, {"variant": "MGESLFKGPRDYNPISSSICHLTNESDGHTTSLYGIGFGPFIITNKHLFRRNNGTLVVQSLHGVFKVKDTTTLQQHLVDGRDMIIIRMPKDFPPFPQKLKFREPQREERICLVTTNFQTKSMSSMVSDTSCTFPSGDGRFWKHWIQTKDGQCGSPLVSTRDGFIVGIHSASNFTNTNNYFTSVPKNFMELLTNQEAQQWVSGWRLNADSVLWGGHKVFMVKPEEPFQPVKEATQL", "note": "[I139R]", "values": [{"measurement": "area with substrate ENCYFQS", "value": 0.0523}, {"measurement": "area with substrate ENDYFQS", "value": 0.0421}, {"measurement": "area with substrate ENEYFQS", "value": 0.061}, {"measurement": "area with substrate ENGYFQS", "value": 0.0677}, {"measurement": "area with substrate ENHYFQS", "value": 0.0709}, {"measurement": "area with substrate ENKYFQS", "value": 0.0667}, {"measurement": "area with substrate ENMYFQS", "value": 0.0663}, {"measurement": "area with substrate ENNYFQS", "value": 0.0494}, {"measurement": "area with substrate ENPYFQS", "value": 0.0551}, {"measurement": "area with substrate ENQYFQS", "value": 0.0588}, {"measurement": "area with substrate ENRYFQS", "value": 0.0642}, {"measurement": "area with substrate ENSYFQS", "value": 0.0623}, {"measurement": "area with substrate ENTYFQS", "value": 0.0491}, {"measurement": "area with substrate ENVYFQS", "value": 0.0593}]}, {"variant": "MGESLFKGPRDYNPISSSICHLTNESDGHTTSLYGIGFGPFIITNKHLFRRNNGTLVVQSLHGVFKVKDTTTLQQHLVDGRDMIIIRMPKDFPPFPQKLKFREPQREERICLVTTNFQTKSMSSMVSDTSCTFPSGDGCFWKHWIQTKDGQCGSPLVSTRDGFIVGIHSASNFTNTNNYFTSVPKNFMELLTNQEAQQWVSGWRLNADSVLWGGHKVFMVKPEEPFQPVKEATQL", "note": "[I139C]", "values": [{"measurement": "area with substrate ENCYFQS", "value": 0.0331}, {"measurement": "area with substrate ENDYFQS", "value": 0.0636}, {"measurement": "area with substrate ENGYFQS", "value": 0.104}, {"measurement": "area with substrate ENKYFQS", "value": 0.0658}, {"measurement": "area with substrate ENMYFQS", "value": 0.0727}, {"measurement": "area with substrate ENNYFQS", "value": 0.0609}, {"measurement": "area with substrate ENQYFQS", "value": 0.0588}, {"measurement": "area with substrate ENSYFQS", "value": 0.0622}, {"measurement": "area with substrate ENTYFQS", "value": 0.062}]}, {"variant": "MGESLFKGPRDYNPISSSICHLTNESDGHTTSLYGIGFGPFIITNKHLFRRNNGTLVVQSLHGVFKVKDTTTLQQHLVDGRDMIIIRMPKDFPPFPQKLKFREPQREERICLVTTNFQTKSMSSHVSDTSCTFPSGDGIFWKHWIQTKDGQCGSPLVSTRDGFIVGIHSASNFTNTNNYFTSVPKNFMELLTNQEAQQWVSGWRLNADSVLWGGHKVFMVKPEEPFQPVKEATQL", "note": "[M125H]", "values": [{"measurement": "area with substrate ENCYFQS", "value": 0.0652}, {"measurement": "area with substrate ENDYFQS", "value": 0.0602}, {"measurement": "area with substrate ENFYFQS", "value": 0.0592}, {"measurement": "area with substrate ENGYFQS", "value": 0.0703}, {"measurement": "area with substrate ENHYFQS", "value": 0.0622}, {"measurement": "area with substrate ENKYFQS", "value": 0.0546}, {"measurement": "area with substrate ENMYFQS", "value": 0.103}, {"measurement": "area with substrate ENQYFQS", "value": 0.0637}, {"measurement": "area with substrate ENSYFQS", "value": 0.0564}, {"measurement": "area with substrate ENTYFQS", "value": 0.0597}, {"measurement": "area with substrate ENVYFQS", "value": 0.069}, {"measurement": "area with substrate ENWYFQS", "value": 0.0028}, {"measurement": "area with substrate ENYYFQS", "value": 0.059}]}, {"variant": "MGESLFKGPRDYNPISSSICHLTNESDGHTTSLYGIGFGPFIITNKHLFRRNNGTLVVQSLHGVFKVKDTTTLQQHLVDGRDMIIIRMPKDFPPFPQKLKFREPQREERICLVTTNFQTKSMSSMVSDTSCTFPSGDGIFWKHWIQTHDGQCGSPLVSTRDGFIVGIHSASNFTNTNNYFTSVPKNFMELLTNQEAQQWVSGWRLNADSVLWGGHKVFMVKPEEPFQPVKEATQL", "note": "[K148H]", "values": [{"measurement": "area with substrate ENCYFQS", "value": 0.0615}, {"measurement": "area with substrate ENDYFQS", "value": 0.0566}, {"measurement": "area with substrate ENEYFQS", "value": 0.0624}, {"measurement": "area with substrate ENFYFQS", "value": 0.0646}, {"measurement": "area with substrate ENGYFQS", "value": 0.0257}, {"measurement": "area with substrate ENHYFQS", "value": 0.0447}, {"measurement": "area with substrate ENIYFQS", "value": 0.0833}, {"measurement": "area with substrate ENMYFQS", "value": 0.077}, {"measurement": "area with substrate ENNYFQS", "value": 0.0823}, {"measurement": "area with substrate ENQYFQS", "value": 0.0664}, {"measurement": "area with substrate ENSYFQS", "value": 0.0652}, {"measurement": "area with substrate ENTYFQS", "value": 0.0387}, {"measurement": "area with substrate ENVYFQS", "value": 0.0599}, {"measurement": "area with substrate ENYYFQS", "value": 0.0615}]}]}
